Laboratory results as given in article PMC4336329 (PLoS ONE, 2015).
Hit rate of the full screen: of about 310,000 compounds, about 14,000 (4.5%) showed an effect of 50% or more. Effects have a minus sign here. The list shows a part of the results.

Target: human ether-à-go-go-related gene (hERG) potassium channel (human, UniProt Q12809)
Assay: primary screen, population patch clamp on CHO cells stably expressing hERG
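Also: peak tail current of the secondary pulse compared with the same well before compound.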

human ether-à-go-go-related gene (hERG) potassium channel, sequence (Q12809 whole entry, looked up): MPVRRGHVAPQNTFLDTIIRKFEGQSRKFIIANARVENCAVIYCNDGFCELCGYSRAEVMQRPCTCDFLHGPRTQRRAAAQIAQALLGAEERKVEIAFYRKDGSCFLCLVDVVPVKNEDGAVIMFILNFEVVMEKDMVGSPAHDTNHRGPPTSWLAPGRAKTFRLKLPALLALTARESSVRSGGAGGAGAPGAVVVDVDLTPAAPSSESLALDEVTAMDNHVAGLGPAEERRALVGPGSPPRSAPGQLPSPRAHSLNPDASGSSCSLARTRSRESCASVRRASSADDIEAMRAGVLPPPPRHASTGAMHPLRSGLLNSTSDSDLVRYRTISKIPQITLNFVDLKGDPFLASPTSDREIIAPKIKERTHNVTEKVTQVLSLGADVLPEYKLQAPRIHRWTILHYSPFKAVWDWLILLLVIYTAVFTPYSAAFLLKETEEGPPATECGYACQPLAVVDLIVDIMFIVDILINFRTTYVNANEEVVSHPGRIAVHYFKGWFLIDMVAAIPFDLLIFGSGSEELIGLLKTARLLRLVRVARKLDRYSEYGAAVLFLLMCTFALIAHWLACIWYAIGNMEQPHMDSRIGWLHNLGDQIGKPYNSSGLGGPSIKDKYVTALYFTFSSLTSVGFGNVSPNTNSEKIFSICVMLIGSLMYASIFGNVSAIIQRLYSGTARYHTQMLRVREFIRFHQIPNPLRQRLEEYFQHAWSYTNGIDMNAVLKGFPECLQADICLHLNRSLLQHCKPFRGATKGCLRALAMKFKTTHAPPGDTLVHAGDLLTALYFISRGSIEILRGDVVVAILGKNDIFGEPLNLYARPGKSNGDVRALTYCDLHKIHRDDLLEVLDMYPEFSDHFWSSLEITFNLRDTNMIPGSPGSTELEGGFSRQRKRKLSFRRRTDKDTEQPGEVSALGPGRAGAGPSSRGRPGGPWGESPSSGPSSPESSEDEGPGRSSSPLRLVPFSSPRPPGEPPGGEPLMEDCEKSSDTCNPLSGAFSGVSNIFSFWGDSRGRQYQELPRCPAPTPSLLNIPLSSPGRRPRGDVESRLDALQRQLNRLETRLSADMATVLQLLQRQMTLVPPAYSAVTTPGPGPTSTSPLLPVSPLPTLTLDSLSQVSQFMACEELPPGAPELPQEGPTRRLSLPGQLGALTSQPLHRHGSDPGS

Row | Structure (SMILES) | hERG current change (%, negative = inhibition) at 10uM [%]
1 | COc1ccc(-c2cc(=O)oc3c(C)c(OCc4nn[nH]n4)ccc23)cc1 | 14.8
2 | COC(=O)C1=CN(Cc2ccc(OC)c(OC)c2)C=C(C(=O)OC)C1c1cccc(F)c1 | -4.58
3 | Cc1cc(C)nc(NS(=O)(=O)c2ccc(NC(=S)NC(=O)C(C)(C)C)cc2)n1 | -15.1
4 | Cc1cc(NC(=O)CN(C)CC(=O)Nc2ccc(Cl)c(C(F)(F)F)c2)no1 | -3.81
5 | CCc1ccc(NC(=O)/C(C#N)=C/c2ccncc2)cc1 | -24.7
6 | CCOc1ccc(CCNc2ccc3nnc(-c4ccccc4)n3n2)cc1OCC | 1.95
7 | Cc1ccc(NC(=O)C2CCCN(S(=O)(=O)c3c(C)noc3C)C2)c(C)c1 (centres unmarked) | -10.9
8 | CC(=O)c1sc2nc(C)cc(C)c2c1N | -8.84
9 | CCOC(=O)c1ccc(NS(=O)(=O)c2c(C)n(C)c(=O)n(C)c2=O)cc1 | -26.6
10 | O=C(NCc1cccnc1)c1ccccc1CCc1ccccc1 | -20.7
11 | CCOc1ccc(CCNC(=O)COC(=O)/C=C/c2ccc(OC(F)F)c(OC)c2)cc1OCC | -15.2
12 | CCOc1ccccc1C(=O)OCC(=O)Nc1ccc(N2CCCCC2)cc1 | 4.96
13 | CCN1CCN(c2nnc(-c3ccccc3)c3ccccc23)CC1 | -36.8
14 | O=S(=O)(c1ccc(-c2cn3ccccc3n2)cc1)N1CCOCC1 | 2.71
15 | CN(C)S(=O)(=O)c1cccc(NC(=S)NCCc2ccccn2)c1 | 28.5
16 | COc1cccc(-n2nnnc2SCC(=O)Nc2cccc(C)n2)c1 | -7.58
17 | COC(=O)c1ccc(C(=O)OC)c(NC(=O)COC(=O)C2CC2C)c1 (centres unmarked) | -21.4
18 | O=C(c1ccccc1[N+](=O)[O-])N1CCCN(C(=O)c2ccccc2[N+](=O)[O-])CC1 | -14.8
19 | O=C(Nc1ccnn1C1CCN(C2CCC2)CC1)c1ccccc1Cl | -63.6
20 | O=C(NCc1ccccn1)c1ccc(Br)s1 | -9.41
21 | OCC#Cc1ncc(C(F)(F)F)cc1Cl | 25.4
22 | C/C(=N/NC(=O)c1ccco1)c1cccc(NC(=O)c2ccc(C)o2)c1 | -45.4
23 | O=C(Nc1ccc(O)c(-c2nc3ccccc3o2)c1)C1(c2ccc(Cl)cc2)CCCC1 | 6.17

Row | Structure (SMILES) | hERG current change (%, negative = inhibition) at 10uM [%]
24 | Cc1ccc(C(=O)Nc2nnc(C)s2)o1 | -11.4
25 | COc1ccc(-n2nnnc2-c2nc3ccccc3s2)cc1 | -15.7
26 | O=C(N/N=C/c1cccc(O)c1)c1cc(-c2ccc3c(c2)OCO3)n[nH]1 | 5.82
27 | CN(CC(=O)Nc1ccc2c(c1)OCCO2)S(=O)(=O)c1ccc(F)cc1 | -1.58
28 | Cc1cccc(C)c1NC(=O)CN.Cl | 8.46
29 | Cc1ccc(NC(=O)COC(=O)CCc2nc3ccccc3c(=O)[nH]2)c(Br)c1 | -0.374
30 | CCc1nc2cc(Cl)c(Cl)cc2nc1CC | 13.5
31 | COc1nc(N(CC(N)=O)S(=O)(=O)c2ccccc2)nc(C)c1Cl | 2.79
32 | OCC1(Cc2ccccc2F)CCCN(CC2CCCCC2)C1 (centres unmarked) | -37.7
33 | CN1C(=O)N(C)c2ccc(Br)c3cccc1c23 | 23.5
34 | CC(C)(C)NC(=O)NC(=O)COC(=O)Cc1c(F)cccc1Cl | -1.29
35 | COc1ccc(CCNCC(O)COc2c(C)cccc2C)cc1OC.O=C(O)C(=O)O (centres unmarked) | 6.84
36 | CC1CCN(S(=O)(=O)c2ccc(C(=O)NNC(=O)C3CC3)cc2)CC1 | 3.28
37 | O=C(CNc1cccc(F)c1)N1CCc2ccccc2C1 | -8.87
38 | Cc1cc(C)c(-c2c(O)c3cccnc3n(C)c2=O)c(C)c1 | 24.9
39 | COCCOC(=O)CC1=NC(=O)CS1 | 4.88
40 | CCC(C)(C)n1nnnc1C(c1cccc(C#N)c1)N1CCN(c2cccc(C)c2C)CC1 (centres unmarked) | 12.6
41 | C=CCNC(=S)N/N=C(\C)c1ccc(OC)cc1 | -3.74
42 | COc1ccc(Cl)cc1CSc1n[nH]c(C)n1 | 14.7
43 | Cn1c(SCC(=O)N2CCN(C(=O)c3ccco3)CC2)nnc1-c1ccc(NS(C)(=O)=O)cc1 | 17.4
44 | O=C(c1ccc(OC2CCN(Cc3ccccn3)CC2)cc1)N1CCCC(O)C1 (centres unmarked) | 13.3
45 | COc1cccc(C2CC(C(F)(F)F)n3nc(C(=O)Nc4c(C)n(C)n(-c5ccccc5)c4=O)cc3N2)c1 (centres unmarked) | 5.29
46 | O=C(CN(Cc1ccco1)C(=O)CNS(=O)(=O)c1ccccc1)NCc1ccc(F)cc1 | -34.5

Row | Structure (SMILES) | hERG current change (%, negative = inhibition) at 10uM [%]
47 | Cc1onc(-c2c(Cl)cccc2Cl)c1C(=O)NC(C)(C)CO | -15.3
48 | Cc1cc2c(cc1S(=O)(=O)N1CCN(c3cccc(C)c3C)CC1)OCCN2C | -6.6
49 | COc1ccc(Cl)cc1N1CCN(CCNC(=O)Nc2ccccc2C)CC1 | -40.1
50 | O=C1CC(c2ccsc2)Sc2ccccc2N1 (centres unmarked) | -30
51 | COc1ccc(/C=C2/C(=O)NC(=O)N(C3CCCCC3)C2=O)cc1CSc1ccccn1 | 12.4
52 | Cc1ccc(S(=O)(=O)N(CC(=O)Nc2cccnc2)c2cccc(Br)c2)cc1 | -11.5
53 | CCNC(=S)N(Cc1ccco1)Cc1cc2cc3c(cc2[nH]c1=O)OCCO3 | 3.89
54 | COc1cc(Cl)c(C)cc1NC(=O)Cc1ccc(OC)c(OC)c1 | -3.03
55 | O=C(NCCCN1CCOCC1)C(=O)N/N=C/c1ccccc1Cl | -4.55
56 | CC(=O)N/C(=C\c1ccc(F)cc1)C(=O)OCc1ccccc1 | -19.2
57 | O=C(O)c1cccc(NS(=O)(=O)c2ccc(-c3ccc(S(=O)(=O)Nc4cccc(C(=O)O)c4)cc3)cc2)c1 | 35.7
58 | CN(CC(=O)Nc1ccc(Cl)c(C(F)(F)F)c1)C(=O)CCN1C(=O)C2CCCCC2C1=O (centres unmarked) | -50.2
59 | Cc1ccc(Cn2c(=O)c3ccccc3n3c(CCC(=O)O)nnc23)cc1 | 10.9
60 | O=C(Cn1ccc([N+](=O)[O-])n1)NCc1nc2ccccc2[nH]1 | 7.31
61 | O=C(NCCc1ccccc1)c1nccc2ccccc12 | 0.978
62 | O=C(Nc1ccc2[nH]ncc2c1)c1ccc(F)cc1 | 17
63 | Cc1sc(NC(=O)C2=COCCO2)c(C(N)=O)c1C | 5.19
64 | CC(=O)Nc1cccc(C(=O)OC(C)C(=O)NC(=O)NC2CCCCC2)c1 (centres unmarked) | 3.89
65 | COc1ccccc1-c1ccc(SCC(=O)N2CCOCC2)nn1 | 0.449
66 | Cc1ccc(OCC(=O)NC2CCS(=O)(=O)C2)c(C)c1 (centres unmarked) | 14.6
67 | CN1CCS/C1=C/C=C1/SC(=S)N(Cc2ccccc2)C1=O | 11.8
68 | Cc1ccc(N(CC(=O)NN=C2CCN(C)CC2)S(=O)(=O)c2ccc(C)cc2)cc1 | -29.3
69 | COc1ccc(S(=O)(=O)N(C)c2ccc(C(=O)NCc3ccco3)cc2)cc1OC | -9.43

Row | Structure (SMILES) | hERG current change (%, negative = inhibition) at 10uM [%]
70 | Nc1ccccc1-c1nc2ccccc2s1 | -8.03
71 | Cc1ccnc2nc(C(=O)Nc3nc4ccccc4s3)nn12 | -15.8
72 | Cc1c(NC(=O)C2CCCN2S(=O)(=O)c2cccc3nsnc23)cccc1C(=O)O (centres unmarked) | 2.61
73 | CCC(=O)C1CCCN(C(=O)c2ccc3nc(-c4cccc(OC)c4)oc3c2)C1 (centres unmarked) | -49.6
74 | COc1ccc(C2CC2/C(=N/O)c2ccccc2)cc1 (centres unmarked) | -6.52
75 | CC(=O)Nc1ccc(/C=N/NC(=O)c2cc(-c3ccco3)nc3ccccc23)cc1 | 2.09
76 | Cc1cc(OCC(=O)O/N=C(\N)c2ccccc2)cc(C)c1Cl | -1.68
77 | O=C(c1ccccc1)C1CCN(C(=O)c2ccco2)CC1 | 0.566
78 | COc1ccc(/C=C2\SC(=S)N(N3CCOCC3)C2=O)c(OC)c1 | 13.1
79 | COc1ccc(/C=C2\SC(=O)N(CC(=O)Nc3cccc(C)c3)C2=O)cc1O | 2.9
80 | COc1ccc(OCCSc2nc3ccccc3n2CCC(=O)O)cc1 | 10.9
81 | OCC[C@H]1C[C@H](O)[C@@H](O)[C@@]2(Cc3ccccc3CO2)O1 | 12.7
82 | Cl.O=C(CCN1CCc2ccccc21)c1ccc2c(c1)OCCO2 | 9.22
83 | CC1=NN(C(C#N)c2ccccc2C)C(c2ccccc2)C1 (centres unmarked) | 8.21
84 | COc1ccccc1N1CCN(C(=O)c2ccc3[nH]c4c(c3c2)CCCC4)CC1 | 10.5
85 | Cc1nn(C)cc1/C=N/NC(=O)c1sc2ccccc2c1Cl | -6.47
86 | COc1ccccc1/C=N/Nc1cc(N(C)C)nc(N(C)C)n1 | -35.9
87 | CCCCCn1c(C)c2c(OCC)cccc(=O)c2c1C | -69
88 | Cc1nn(C)c(Oc2ccccc2)c1CCNS(=O)(=O)c1ccc(F)cc1 | 3.58
89 | CCCCC(CC)COC(=O)c1ccc(N(C)C)cc1 (centres unmarked) | 3.95
